Measurements from the supplement of paper PMC4166925.
± gives the standard deviation of the averaged measurements. The full ranking holds about 33,000 sequences; the median of “E-score (dimensionless, -0.5 to 0.5)” is about -0.046, and the highest 2% start at about 0.36. The list shows a part of the results.

system: T1, SpTbr T-box DNA-binding domain (GST fusion); test: PBM E-score of 8-mer (E-score (dimensionless, -0.5 to 0.5)); Tbr is Tbrain of the sea star Patiria miniata (Pm) or the sea urchin Strongylocentrotus purpuratus (Sp); higher = stronger binding preference; most listed sequences are background and not binding sites; details: the construct has about 5 more residues each side
T1 sequence: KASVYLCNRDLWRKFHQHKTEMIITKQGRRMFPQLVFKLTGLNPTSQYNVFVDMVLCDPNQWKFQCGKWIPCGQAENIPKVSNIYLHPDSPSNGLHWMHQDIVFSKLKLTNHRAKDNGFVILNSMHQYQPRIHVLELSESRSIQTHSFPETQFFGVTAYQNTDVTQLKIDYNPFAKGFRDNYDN
Procedure, shortened: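 Each ungapped 8-mer received an enrichment E-score from the Universal PBM Analysis Suite, averaged over duplicate arrays. The proteins were Tbr T-box DNA-binding domains, covering the whole T-box plus about five flanking residues, fused to GST and expressed in BL21 E. coli at 20 °C before glutathione affinity purification. Universal Agilent oligonucleotide arrays were made double-stranded by primer extension and incubated with 200 nM protein in PBS (pH 7.5). The arrays were then scanned and quantified, and every 8-mer was scored from probe intensities.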

Sequence	PBM E-score of 8-mer
ACACGCGC	0.227 ± 0.05
CTAAGGCA	-0.0263 ± 0.033
AATCGTAG	-0.147 ± 0.02
CGTCCCAC	-0.0142 ± 0.037
GAGTTGCA	0.0465 ± 0.0034
CTCGAATA	-0.0405 ± 0.095
CCGCACAA	0.121 ± 0.067
ATGCACCG	-0.0673 ± 0.0013
AAAGAATT	-0.183 ± 0.04
AAGTGGTC	-0.0526 ± 0.0075
CTGCCATC	-0.0451 ± 0.048
GAGGTACC	0.00431 ± 0.0012
ACCCGCTA	0.17 ± 0.021
AGAAGTAA	-0.112 ± 0.028
ATTCTGTA	-0.132 ± 0.057
CGACACCC	0.416 ± 0.028
CGCATCTA	0.0404 ± 0.06
CATGTCCC	-0.163 ± 0.03
AAATTATG	-0.054 ± 0.07
CCGTTAAG	0.175 ± 0.036
GATCAGCC	-0.106 ± 0.049
TGCAATAA	-0.129 ± 0.011

Sequence	PBM E-score of 8-mer
CGGATTGA	-0.09 ± 0.073
AACGTGAC	0.248 ± 0.028
CGGTAGAA	-0.192 ± 0.048
ATTGACGG	0.144 ± 0.0081
AGTTTGGG	-0.0494 ± 0.022
AGCGGATC	0.0611 ± 0.053
AATCAGTG	0.0458 ± 0.0095
AATGATGC	-0.0164 ± 0.065
AGCAAAAC	0.0131 ± 0.017
CTATAAGA	-0.00374 ± 0.091
GCCCTTAC	-0.00743 ± 0.12
ACCACCAG	-0.188 ± 0.074
CAGGGGCC	-0.0729 ± 0.012
ACTCGAGA	-0.0321 ± 0.017
GCGGGCAC	0.11 ± 0.031
CTCCTCAG	-0.0357 ± 0.025
GTCATCGA	0.2022 ± 0.00077
TCCGTCGA	-0.121 ± 0.008
TCGAAACA	-0.0701 ± 0.042
CTTCCAGC	-0.111 ± 0.1
TCCTGCGA	0.0345 ± 0.024
ATGCTTTA	-0.108 ± 0.0093

Sequence	PBM E-score of 8-mer
GGCGCGCA	0.153 ± 0.047
CGGAGGTA	-0.208 ± 0.064
AGAGGTCG	-0.0757 ± 0.0026
AGCTTTTC	0.081 ± 0.038
CTTGTAAC	0.0776 ± 0.026
AGGTTACG	-0.00206 ± 0.019
CTCGAGTA	-0.0877 ± 0.0017
CCGCAGTA	-0.0295 ± 0.032
ACATTAGT	-0.133 ± 0.019
GTAAGCAA	-0.0379 ± 0.057
TACGAGGA	-0.291 ± 0.011
AATACTTA	-0.157 ± 0.063
CTTTTGGC	0.061 ± 0.046
AATGCAAC	-0.174 ± 0.0024
ATACTTAA	-0.166 ± 0.048
TAATTCGA	-0.139 ± 0.015
CTGACATC	-0.107 ± 0.031
ATTTCAGC	-0.137 ± 0.099
CAGTTTAA	-0.00677 ± 0.046
ACCTGGGA	0.136 ± 0.037
CAGGTGAC	0.425 ± 0.013
CGGTCCTC	-0.145 ± 0.033

Sequence	PBM E-score of 8-mer
CGAAACTA	-0.0459 ± 0.041
GGTCATGA	-0.323 ± 0.028
AGTGCAAT	0.115 ± 0.002
CCTCGCGC	0.343 ± 0.032
ATACCTGA	-0.106 ± 0.078
CTCATAAA	-0.187 ± 0.12
CCTAGACA	-0.00551 ± 0.04
CGATTTGC	0.178 ± 0.0076
ATCTAGAG	0.0228 ± 0.039
ATCTATGA	-0.124 ± 0.091
AGGCCCCG	-0.336 ± 0.076
AGAGCTCA	-0.259 ± 0.015
ACCTCATA	0.0747 ± 0.065
ATGTGTAG	0.172 ± 0.033
CTCGTGTA	0.104 ± 0.059
GCGATCGC	0.225 ± 0.084
GGAGGTAA	-0.0439 ± 0.016
GGCTTGAC	-0.144 ± 0.0024
ACAATGAA	0.0132 ± 0.019
CGCTGTGA	0.18 ± 0.031
AGCCGGTA	-0.204 ± 0.063
CCCCCCAG	-0.252 ± 0.012

Sequence	PBM E-score of 8-mer
GGGACAGA	-0.0619 ± 0.054
GATTACAA	0.0735 ± 0.066
ATTGGTCG	-0.00924 ± 0.073
CGCGACGC	0.255 ± 0.012
TCAAGCGA	-0.118 ± 0.033
CCGGCGCA	-0.0724 ± 0.082
CAAGACAC	0.208 ± 0.0069
CGTACTCA	-0.0533 ± 0.076
CTTGCAAG	0.307 ± 0.067
ATAGCGTA	-0.0756 ± 0.043
ATATGTTA	-0.0895 ± 0.045
TACCCTGA	-0.0881 ± 0.033
CTGACGAC	0.113 ± 0.065
ACAGCATC	-0.105 ± 0.063
AATGAGGA	-0.334 ± 0.058
ATTAATTG	-0.0252 ± 0.042
ACGTTCCC	-0.171 ± 0.095
CCAATAGC	-0.00878 ± 0.043
CTGGACAG	0.00212 ± 0.036
ATGGGAAG	-0.151 ± 0.031
AACTTGTG	0.196 ± 0.018
AGAATCTA	-0.011 ± 0.1
